# Source: the supplement of paper PMC3334620
# The full ranking holds about 33,000 sequences; the median of “E-score (-0.5 to 0.5)” is about -0.021, and the highest 2% start at about 0.32. The list shows a part of the results.
# Target: T1, Zap1 (UniProt P47043)
# T1 sequence: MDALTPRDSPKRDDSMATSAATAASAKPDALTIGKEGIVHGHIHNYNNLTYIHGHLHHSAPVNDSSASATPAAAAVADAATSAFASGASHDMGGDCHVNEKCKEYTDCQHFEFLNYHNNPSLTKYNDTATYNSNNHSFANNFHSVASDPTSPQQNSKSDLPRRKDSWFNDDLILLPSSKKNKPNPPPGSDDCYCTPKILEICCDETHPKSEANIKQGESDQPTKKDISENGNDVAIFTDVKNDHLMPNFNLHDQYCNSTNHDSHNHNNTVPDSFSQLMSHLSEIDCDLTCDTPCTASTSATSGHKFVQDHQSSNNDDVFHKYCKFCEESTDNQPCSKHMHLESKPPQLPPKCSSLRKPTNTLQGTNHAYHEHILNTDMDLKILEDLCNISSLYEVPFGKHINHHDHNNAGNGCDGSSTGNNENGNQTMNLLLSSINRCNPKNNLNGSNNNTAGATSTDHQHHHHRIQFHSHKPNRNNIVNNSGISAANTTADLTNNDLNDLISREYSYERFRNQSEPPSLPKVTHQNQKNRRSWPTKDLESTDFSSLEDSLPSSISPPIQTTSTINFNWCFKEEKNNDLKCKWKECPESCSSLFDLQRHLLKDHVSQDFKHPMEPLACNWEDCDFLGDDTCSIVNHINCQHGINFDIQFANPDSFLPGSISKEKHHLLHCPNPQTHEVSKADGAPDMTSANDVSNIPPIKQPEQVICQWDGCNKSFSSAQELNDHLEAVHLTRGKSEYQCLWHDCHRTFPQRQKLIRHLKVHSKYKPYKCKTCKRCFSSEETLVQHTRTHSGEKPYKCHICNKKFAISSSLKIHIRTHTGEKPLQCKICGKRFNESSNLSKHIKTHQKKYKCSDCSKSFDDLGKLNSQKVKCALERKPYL
# Test: PBM E-score (8-mer binding enrichment) (E-score (-0.5 to 0.5)); higher = stronger / more preferred TF binding; most listed sequences are background and not binding sites
# Conditions: protein concentration: 200 nM; construct: GST-full length
# Description: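 Universal 'all 10-mer' protein binding microarrays (Agilent AMADID 015681) probed with GST-tagged S. cerevisiae TFs (full-length or DBD) made by in vitro transcription/translation (PURExpress), about 100-200 nM. Bound TF was detected with fluorescent anti-GST. Each ungapped 8-mer (which stands for itself and its reverse complement) is scored by the PBM enrichment score (E-score), a modified Wilcoxon-Mann-Whitney statistic from -0.5 to +0.5, computed with the Universal PBM Analysis Suite. Scale: above 0.35 generally sequence-specific binding.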
row,Sequence,PBM E-score
1,AATGCTAT,-0.00383
2,ACTCCTCC,-0.187
3,TCGAAAAA,0.141
4,AGGCATGA,-0.292
5,AAGCCTCA,-0.134
6,TCTCCTAA,0.0322
7,ACAACTAG,0.107
8,GGTTCCAA,0.249
9,AACAGCGC,-0.0206
10,AATAGGCT,-0.13
11,AAGACCCG,0.0601
12,GGGATAAC,0.0475
13,CCGAGCGA,-0.12
14,CAAATGCC,-0.192
15,CAGCGCCC,-0.293
16,CTAATTGC,0.0789
17,CCTGTTGC,0.0211
18,GTCGGCAA,-0.158
19,GGGTCTCA,-0.0213
20,AGCTGCAA,-0.211
21,ACCGACTA,-0.234
22,CGATTTGA,-0.0209
23,GGGTGGAC,-0.0732
24,GACCCCGA,0.244
25,GAACTCCC,-0.0452

row,Sequence,PBM E-score
1,GGAGCTTA,-0.0905
2,GGGCCTCA,0.0714
3,ACTTTATC,0.00981
4,CAAACGCC,-0.111
5,CAGACGAC,-0.285
6,ACGTTAGA,-0.0993
7,AAGTCACA,-0.034
8,CGCCGTTA,-0.0676
9,GGAATGAC,-0.079
10,GGTTCCCA,0.164
11,CCCAACAG,-0.119
12,GTCACGAC,0.124
13,ATAACCAC,0.46
14,AAATCAGT,-0.0332
15,ATTGGAGC,-0.117
16,GAACAGGA,-0.00724
17,ATGTCTAA,0.0432
18,AGTGATAC,0.147
19,CCTCCACA,-0.0417
20,CAAGTTGC,-0.112
21,GTGCCTTA,-0.0871
22,GTTTAACA,-0.00677
23,AGTACCTC,0.146
24,AGGTCGAT,0.0976
25,GGCTTCCC,-0.38

row,Sequence,PBM E-score
1,GATACGAC,0.065
2,GATCTCCA,-0.171
3,ACTCTTAG,0.106
4,GATATCGA,0.0362
5,ATCCGCCA,-0.315
6,GAACCAAC,0.113
7,ACGTTCAT,-0.1
8,AAGAATCT,0.0453
9,GGGCCAGA,-0.0833
10,GACACCCA,-0.0772
11,CACCTATA,0.0311
12,GACGGTAA,0.0316
13,AGACGTCG,-0.222
14,CAATTAGG,0.125
15,CTCCAATA,0.0589
16,ACAAAGGA,0.0193
17,ATCGGCCG,-0.138
18,GAAGCGAA,0.0596
19,ACAGACTG,-0.105
20,ATGATTAA,0.159
21,TCACACGA,0.0506
22,AGTATCGG,0.00333
23,ACATTCGT,-0.0131
24,GCCCTGAC,-0.255
25,TACACTGA,-0.0732

row,Sequence,PBM E-score
1,GTAAAGAC,0.141
2,AGCAACCC,0.239
3,AGGGATCA,0.0782
4,ATTAATTC,0.152
5,CACTGAGC,-0.214
6,GTGAGAAC,0.0954
7,CCCTCAAA,0.142
8,AACGGGGT,0.0935
9,ACAAATGC,0.196
10,CGGAAACC,-0.0362
11,AGAAAACA,0.167
12,AAAGGACA,0.177
13,TAGCCGCA,-0.121
14,GTCATGGA,0.132
15,CGGTATAA,0.0772
16,AAGCCGTG,-0.0561
17,CGGGTTTC,0.289
18,AACAGATT,0.179
19,ATATCCTG,0.103
20,CGGTTAAC,0.232
21,AGGCCTAC,-0.114
22,GACCTCAC,0.0004
23,CATCGTTA,-0.044
24,TCCCAGCA,-0.092
25,ATTCATTA,0.115

row,Sequence,PBM E-score
1,CATTGTGG,0.0202
2,GAGGGCCA,-0.0719
3,AAAACGCC,-0.132
4,AGACTGGC,-0.349
5,CTGTTGCA,0.201
6,ACCTCTTC,0.278
7,GCTATCTA,-0.00521
8,CTTCACTC,-0.189
9,AAAACACT,0.14
10,GGCTTACC,-0.036
11,CGTTAAGC,-0.0783
12,AGGCCCTC,-0.0894
13,AACGAGAT,-0.115
14,CCAAGTAC,0.135
15,AGAACGTC,-0.105
16,GATTCTCA,0.0637
17,ACCTGCGC,-0.0387
18,AGGGACGC,0.0184
19,AGGCATCG,-0.158
20,CCCTAACA,0.255
21,GAACGTAA,0.138
22,GAGTCTGC,-0.278
23,AAGCTGTC,-0.0854
24,CAGCCTTC,-0.181
25,GTACTGGA,-0.00941

row,Sequence,PBM E-score
1,AGTCCCGC,-0.068
2,ACGTTGGA,-0.00373
3,CAATGACA,-0.0734
4,CTACAGCA,-0.115
5,GAGACCAA,0.134
6,AATTAAGA,-0.0073
7,ACTAAAAA,0.262
8,GCCTTTTA,0.0912
9,GATCTTCA,-0.123
10,CTCGAAAG,0.035
11,ACTCCCAA,-0.0223
12,CTAGACAG,-0.122
13,CGTTCTAG,-0.00266
14,ACTAGTAC,0.0159
15,GAGACATA,0.0225
16,CGATCACA,0.081
17,GCTGTTGA,-0.0944
18,CCCTAATA,0.161
19,GCATTCAA,0.0999
20,ACGATGAG,-0.0399
21,GTGTGCAA,-0.0914
22,CCACCCCA,-0.0125
23,ATATTACG,0.099
24,CGGACGCA,-0.2
25,CATAAGTA,-0.0817

row,Sequence,PBM E-score
1,ACACACCT,0.073
2,CGACCGCG,0.163
3,CGCCTGAG,-0.0453
4,GAAATAAA,0.0984
5,AATGGTAA,0.314
6,CAAACTGA,-0.0548
7,ATGGGACA,0.0433
8,GCACGGCC,-0.0439
9,ACATTAGC,-0.111
10,ACTATGAT,-0.00467
11,ACTTACTC,-0.185
12,CATTAGAA,0.0779
13,CGCCCGTA,-0.335
14,CGCCTCGC,-0.226
15,ACCACGAG,0.102
16,AGCTTGTC,-0.00284
17,AATGATCG,-0.145
18,ATTTATAG,0.0889
19,ATCAAATC,0.0253
20,CAGGACAG,-0.0195
21,CCGATTAC,-0.0754
22,AATTGAGA,0.109
23,GAGGCCAA,-0.0454
24,TACCACTA,0.179
25,AAGAAACA,0.153

row,Sequence,PBM E-score
1,GGGCACCC,0.0588
2,ACCAGTAT,0.0851
3,GTAGACCA,-0.0109
4,AATATCGT,0.0379
5,TGCTAACA,-0.0987
6,ATTGGATA,0.117
7,CGTTTCAA,0.107
8,ACCTGGCA,-0.0855
9,ATCTTATG,-0.00019
10,ACTGGGTA,0.18
11,AAATTTCA,0.0746
12,AGGGCAGG,-0.0942
13,CGGGAGGA,-0.0827
14,GATGGCGA,-0.0942
15,AGAATACA,0.0411
16,AACGAGCG,-0.0754
17,AAGTCGCG,0.0253
18,ATTCTGCG,-0.00266
19,GATGCTCA,-0.071
20,AATCTGGC,-0.121
21,GGACAGTA,0.0583
22,CTGCTTTA,0.195
23,CACCTGAA,0.138
24,CACCTATC,-0.0885
25,TCGGTTCA,0.0449

row,Sequence,PBM E-score
1,CTACCGGA,0.0256
2,TAAAATAA,0.116
3,CGGACTTC,-0.17
4,GCTCGACC,-0.099
5,ACAGTAAT,0.0768
6,CTGGTGCC,-0.169
7,ATACCATA,0.231
8,CGTTGAGC,-0.241
9,ACGCCCGT,-0.172
10,TGGACGAA,0.0932
11,CATTAAGG,0.175
12,AGCTATGG,-0.00599
13,CGACACCG,-0.0288
14,AAATAACT,0.279
15,ATCTGTAC,-0.0911
16,CATGAAAC,0.0838
17,ACGGCGAA,0.001
18,TACGTCCA,-0.00299
19,GTCGACGA,-0.123
